Experimental data as given in patent US9777070B2, “Anti-PTK7 antibody-drug conjugates” (Pfizer Inc., priority 2014, dated 2017).

Tests used:
[1] = test system: BR13 TNBC breast tumors; test: Tumor-initiating cell (TIC) frequency by limit dilution analysis after in vivo treatment; design: species or system human tumor in mice; settings: 4 mpk
Method: To determine whether anti-PTK7 antibody-drug conjugate treatments reduced tumor-initiating cell (TIC) frequency in tumors, BR13 TNBC breast tumors were treated with 4 mg/kg hu24-vc0101 ADC, 4 mg/kg control IgG ADC, or 20 mg/kg docetaxel chemotherapy twice weekly for a total of 3 doses (Days 0, 3 & 7). Live, residual human tumor cells (i.e. hESA^+ mCD45^− mH-2Kd^−) were isolated from dissociated tumors at day 10 and re-implanted into naïve animals in a limit dilution analysis (LDA). Resulting tumor incidence was monitored for up to 40 weeks post-transplant. The day of tumor harvest (day 10) and serial transplantation was chosen based on when tumors were starting to regress following hu24-vc0101 exposure. Tumors were dissociated and stained with anti-human ESA, anti-mouse CD45, and anti-mouse H-2Kd antibodies. Three tumors per treatment group were pooled, and live human tumor cells were sorted by flow cytometry. Groups of 10 mice were injected with either 293, 73, 37 or 15 tumor cells sorted from control IgG ADC treated tumors; 159, 90, 40 or 10 tumor cells sorted from hu24-vc0101 treated tumors; or 257, 33 or 15 tumor cells sorted from docetaxel-treated tumors. Tumors in recipient mice were measured weekly and tumors that exceeded 200 mm^3 in recipient mice were scored as positive. Using Poisson distribution statistics, via L-Calc software (Stemcell Technologies, Vancouver, BC), injected cell doses of recipients with and without tumors by 40 weeks post-transplant were used to calculate the frequency of TIC after each treatment.

[2] = test system: BR36 PR+ breast cancer PDX; test: In vivo efficacy, PDX tumor growth; design: species or system human tumor in mice; settings: 3 mg/kg
Text: The effects of anti-PTK7 antibody-drug conjugates were further evaluated on the in vivo growth of human tumor patient-derived xenografts (PDX). Primary tumor resection samples were procured from clinical sites following Institutional Review Board for the Protection of Human Subjects approval and in accordance with HIPAA regulations. Tumor fragments were stored and shipped in Hypothermasol (Biolife Solutions) on ice and were embedded in Matrigel (BD) containing a proprietary mix of growth factors and implanted subcutaneously into the mammary fatpad of female NOD/SCID mice within 24 hours of resection. Mice were monitored for health status daily and for tumor growth initially by visual inspection twice per week. […]
For efficacy studies, tumors were harvested from passaging studies and cells were dissociated into single cell suspension. Preparations were counted for live cells using Trypan blue exclusion and 10,000 to 50,000 cells were inoculated per mouse in Matrigel. […]
Mice harboring BR36 human breast cancer xenografts were dosed Q4Dx4 with hu24-vc0101 ADC, paclitaxel, negative control ADC or vehicle. Tumor measurements were recorded twice a week using digital calipers and are shown as Mean±SEM. […]
Tumor growth inhibition (TGI) was calculated using the equation % TGI=[1−(mean tumor volume of treated)/(mean tumor volume of vehicle)]. […]

B1: hu24-vc0101: hu24 conjugated through cysteines to vc0101 linker-payload; average DAR approximately 4 (conjugate)
heavy: QVQLVQSGPEVKKPGASVKVSCKASGYTFTDYAVHWVRQAPGKRLEWIGVISTYNDYTYNNQDFKGRVTMTRDTSASTAYMELSRLRSEDTAVYYCARGNSYFYALDYWGQGTSVTVSS[letters of human IgG1 constant region omitted]
light: EIVLTQSPATLSLSPGERATLSCRASESVDSYGKSFMHWYQQKPGQAPRLLIYRASNLESGIPARFSGSGSGTDFTLTISSLEPEDFAVYYCQQSNEDPWTFGGGTKLEIKRTVAAPSVFIFPPSDEQLKSGTASVVCLLNNFYPREAKVQWKVDNALQSGNSQESVTEQDSKDSTYSLSSTLTLSKADYEKHKVYACEVTHQGLSSPVTKSFNRGEC
With B1 the “# Animals with tumors” value ([1]; Group B1, 159 cells implanted per animal, 7 animals in group) was 3, the “# Animals with tumors” value ([1]; Group B2, 90 cells implanted per animal, 8 animals in group) was 2 and the “# Animals with tumors” value ([1]; Group B3, 40 cells implanted per animal, 10 animals in group) was 0. For the same molecule, the “# Animals with tumors” value ([1]; Group B4, 10 cells implanted per animal, 8 animals in group) was 0, the “Regression (TTP, Days)” value ([2]; Q4Dx4 ip) was “Regression (103) Days” and the “tumor regression without tumor growth through day” value ([2]; BR36, Q4Dx4, FIG. 17) was at least 103 days.
